Measured values: article PMC6212790
This is one part of the list. At the low end of the ranking the order means little.

target: T1, GST-Rok-C97-191 (UniProt O34857); assay: protein binding microarray; settings: Rok is a gene silencer of Bacillus subtilis; high values mean tight binding; most listed sequences are background and not binding sites; double strand, one strand shown;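 further: rank score from −0.5 (least bound) to 0.5 (best bound)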
T1 sequence: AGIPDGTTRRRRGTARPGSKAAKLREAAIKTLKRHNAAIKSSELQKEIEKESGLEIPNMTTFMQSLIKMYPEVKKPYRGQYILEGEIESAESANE

Row | Sequence | binding signal [E-score]
1 | ATGGCCCC | -0.211
2 | ATCCAGGG | -0.16
3 | ATCAGAAG | 0.0449
4 | CCATCTCA | -0.184
5 | GCAGCTGC | -0.275
6 | CTGGAGAC | 0.00478
7 | GGCGAAGA | -0.0389
8 | GTATATTA | 0.371
9 | AATATTAG | 0.31
10 | ATACATCC | 0.108
11 | ATCACAAC | -0.0464
12 | AGTCACCA | -0.102
13 | AGTTTTGA | 0.138
14 | AACCAACT | 0.115
15 | GTGCTTGA | -0.0715
16 | CTCTTAAA | -0.0778
17 | GGGGGCCA | -0.346
18 | GAAGGCAC | -0.194
19 | CGCAGTTA | 0.176
20 | AGCAGCAT | -0.0485
21 | ATAAAAAC | 0.253
22 | ACGCGACC | -0.0671
23 | CGGTAACA | 0.146
24 | GGGTTAAC | -0.176
25 | AAAACACT | 0.0281

Row | Sequence | binding signal [E-score]
26 | AGTATCAA | 0.161
27 | CTAATGAA | 0.0247
28 | TAGTACGA | 0.303
29 | AACGCAGT | -0.231
30 | TCCGTAGA | 0.0606
31 | AAAAGTGC | -0.068
32 | GTGTAAGA | 0.118
33 | ATCTTACA | 0.147
34 | CCCGAGAA | -0.0119
35 | CTCCGGGA | -0.0788
36 | ATTACGAC | 0.256
37 | AAGTTTGT | 0.168
38 | ATCGGTAA | 0.202
39 | CTCAACTC | -0.198
40 | TCGCCAAA | -0.173
41 | ATCCCGGG | -0.186
42 | ACGAGAGT | -0.0523
43 | GAGTGGCA | -0.176
44 | CACACCCA | -0.195
45 | AGTGGGGC | -0.3
46 | CGATGGTA | 0.179
47 | ATTATGCG | 0.0439
48 | ACGGAAGT | -0.0476
49 | AGTTCATG | 0.07
50 | GTGGCTAA | 0.0117

Row | Sequence | binding signal [E-score]
51 | ATTGAGTG | 0.146
52 | GACGCACC | -0.181
53 | AATCCGAA | 0.0539
54 | CAGTCTGA | -0.233
55 | ACCTTTAT | 0.03
56 | AATCCGGA | 0.0521
57 | CACACAAC | 0.034
58 | AACTTTAT | 0.134
59 | CCCTTATC | 0.0243
60 | ACTTGAAT | 0.0478
61 | CGCGGGGC | -0.337
62 | AAGCCCCC | -0.386
63 | TGTAAAAA | 0.34
64 | GTTGTTTA | 0.00836
65 | ACACGCGA | -0.0741
66 | AACTACGC | 0.126
67 | GTGTAGAA | 0.293
68 | GCCTCGTA | -0.16
69 | CCCTCTCA | -0.28
70 | CAGCTCCC | -0.279
71 | GCCGCCAC | -0.0821
72 | AATTTCCA | 0.135
73 | ACCCGCGT | -0.276
74 | GCTTTTTA | 0.118
75 | CCGTTTCA | -0.0867

Row | Sequence | binding signal [E-score]
76 | AATGTCCA | -0.00167
77 | AAGTGTGT | 0.111
78 | TAGACAAA | 0.07
79 | AACCCTAC | 0.172
80 | CCGTGAGG | -0.139
81 | ACGCGTCG | -0.108
82 | CTAACATC | 0.0635
83 | AAAATAAT | 0.26
84 | AACGTTTA | 0.0689
85 | AATGCACT | -0.0309
86 | ACTGGGCC | -0.244
87 | ATGTCGAC | 0.126
88 | CATAATGC | 0.181
89 | TCGCACAA | 0.00373
90 | CACTATCA | 0.175
91 | CTCTGCGC | -0.0737
92 | ACACCCTG | -0.0485
93 | GTCTGCAC | -0.126
94 | GGCCGGCC | -0.261
95 | ACTCACAT | 0.117
96 | TAATCTAA | 0.232
97 | GGGGTAAC | -0.159
98 | CTTTAAAG | -0.0598
99 | CCGGCATC | -0.148
100 | ACATTAAC | 0.203

Row | Sequence | binding signal [E-score]
101 | ATAATTCA | 0.245
102 | AGTGTATC | 0.0994
103 | CATACAAA | 0.219
104 | CTGGAAGC | -0.21
105 | AACACCCG | 0.0543
106 | GCGGCCAA | -0.114
107 | CCTAATAG | 0.0655
108 | CCTAACTC | -0.105
109 | GACCCCGA | -0.269
110 | CATCCCCC | -0.349
111 | CATCCGCG | -0.243
112 | AACAGGCG | -0.0782
113 | ATTCTGCA | 0.122
114 | GAGCTTCC | -0.268
115 | ACATGGTA | 0.196
116 | AGTATCAT | 0.166
117 | CAAAGTTC | 0.0148
118 | GGACTCAC | -0.0112
119 | GTTAAAAC | 0.0593
120 | CGTCTGGA | -0.134
121 | ACTCCTGG | -0.143
122 | CGGTGTAC | -0.129
123 | GTAGGGAA | -0.0201
124 | CAAATGGA | -0.0521
125 | CACGGGCG | -0.167

Row | Sequence | binding signal [E-score]
126 | CAGTATCG | 0.128
127 | GATCGATA | 0.165
128 | ATTCCAGC | -0.192
129 | CAGGCCAA | -0.32
130 | AATTGAGC | -0.109
131 | AGACCGGC | -0.0364
132 | ACATGGGG | -0.107
133 | CTCTATTC | -0.103
134 | GGAACCGA | -0.0576
135 | AATTCTCC | 0.213
136 | ACACGATG | 0.01
137 | ATCCATCG | -0.0764
138 | AGTCCGTG | -0.145
139 | ATGAACAA | 0.0288
140 | AGCCGTAT | -0.146
141 | CGGTCCTC | -0.142
142 | AGTCACGG | -0.237
143 | ATCGTGCC | -0.186
144 | CATAAATA | 0.149
145 | ATAATCGG | 0.072
146 | CCGACCCA | -0.175
147 | CACTAAGC | -0.149
148 | ACAGACCG | -0.107
149 | GATGTTGA | 0.0809
150 | ACTGGAAA | 0.119

Row | Sequence | binding signal [E-score]
151 | GCGCACTA | 0.0427
152 | AATTCCCA | 0.212
153 | GCAGAACC | -0.0545
154 | ACGCGTCT | -0.141
155 | GATCACGC | -0.0269
156 | GGGCTTTA | -0.22
157 | ACAAGCTA | 0.109
158 | CATGGGCC | -0.32
159 | ACGTAGGG | -0.232
160 | TGAAACCA | -0.109
161 | AACATAAC | 0.21
162 | TGTAGGAA | 0.162
163 | CGATTTTC | -0.135
164 | ATAATGCG | 0.3
165 | GGCAGGGA | -0.261
166 | AATTATGT | 0.209
167 | AAGCAAGG | -0.206
168 | CTAATCTA | 0.348
169 | AGTATAAT | 0.289
170 | ACCTGGAC | -0.203
171 | CGGAGGAA | -0.222
172 | AACGAAGA | -0.0492
173 | TCTGCCCA | -0.272
174 | AGACCCAC | -0.0968
175 | CCGGAATA | 0.248

Row | Sequence | binding signal [E-score]
176 | ATTGAGGC | -0.208
177 | AGTTGTAC | 0.245
178 | TCGACAAA | -0.00611
179 | ATGGATAC | 0.0686
180 | TAGTAGCA | 0.316
181 | CTACGGTA | 0.142
182 | GTAGTATA | 0.428
183 | AATATTGG | -0.0277
184 | GCTGTAAA | 0.112
185 | GAGCACGC | -0.0757
186 | AACAAAGG | -0.0348
187 | AGATGCGC | -0.0363
188 | GAAGGGTA | -0.0966
189 | ATACGGAC | 0.0241
190 | GCGTAGTA | 0.178
191 | AGACATAA | 0.121
192 | TTAGCAAA | 0.177
193 | ACGTCGGG | -0.253
194 | AGCGGGAA | -0.26
195 | CACTCACG | -0.012
196 | CCCAGCCG | -0.245
197 | CGTGGTTA | -0.0573
198 | CCGAGCTC | -0.00832
199 | CTTGGTTA | -0.0516
200 | AAGCATCC | -0.133

Row | Sequence | binding signal [E-score]
201 | ATTAGTAG | 0.319
202 | CTTCCCTC | -0.0926
203 | TATTGAGA | 0.0663
204 | CTTCGACA | 0.062
205 | AAGATCAC | 0.221
206 | AGGAGACA | -0.179
207 | ACGAAATG | 0.155
208 | CGGTTGCC | -0.267
209 | GTGATGAA | 0.0495
210 | CTCGAAAC | 0.104
211 | CCATTAGC | 0.0566
212 | CGACATCA | -0.0626
213 | CCAGATGG | -0.16
214 | CCAGGAAA | -5.76e-05
215 | CGGTCCTA | -0.0529
216 | ATTGAATA | -0.00104
217 | CAGTCGTA | 0.0418
218 | ATTCCCAG | 0.0654
219 | ACGTCCGC | -0.117
